Assay results from the supplement of paper PMC9446081.
Hit rate of the full screen: of about 39,000 compounds, about 220 (0.56%) showed activity. Some of the results follow.
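Also: static incubation at 37 °C against the wild-type strain, values averaged over two biological replicates.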

Each molecule was assayed on Escherichia coli K-12 BW25113 (assay: relative growth (OD600 normalised to plate interquartile mean) (fraction); higher = less growth inhibition, active = 0.2 or less). Conditions: 50 µM; LB; incubation time: overnight (16-24 h).
In the case of COc1ccc(NC(=O)Nc2ccc3c(c2)C(=O)N([C@@H](C)CO)C[C@H](C)[C@H](CN(C)S(=O)(=O)c2ccccc2)OCCCC[C@@H](C)O3)cc1, the relative growth is reported as inactive: 1.03. In the case of CCCNC(=O)N(C)C[C@H]1Oc2cc(-c3ccc(C)cc3)ccc2S(=O)(=O)N([C@@H](C)CO)C[C@@H]1C, the relative growth is reported as inactive: 0.999. With O=C(C[C@@H]1CC[C@H]2[C@@H](COC[C@@H](O)CN2C(=O)Nc2ccc(Cl)cc2)O1)NCCc1ccncc1 the relative growth was inactive: 0.959. For OCc1ccc2c(c1)OCCO2, the relative growth was inactive: 1. For COc1ccc(CNS(=O)(=O)N(C)C)cc1, the relative growth was inactive: 1.01. COc1ccc(CN(C)C[C@@H]2OCCCC[C@@H](C)Oc3ccc(NC(=O)Cc4ccccc4)cc3C(=O)N([C@H](C)CO)C[C@@H]2C)cc1 was tested, and the relative growth was inactive: 0.991. For CO[C@H](C(=O)[C@@H](O)[C@@H](C)O)[C@H]1Cc2cc3cc(O[C@H]4C[C@@H](O[C@H]5C[C@@H](O)[C@@H](O)[C@@H](C)O5)[C@@H](O)[C@@H](C)O4)c(C)c(O)c3c(O)c2C(=O)[C@@H]1O[C@H]1C[C@@H](O[C@H]2C[C@@H](O[C@H]3C[C@@](C)(O)[C@@H](O)[C@@H](C)O3)[C@@H](O)[C@@H](C)O2)[C@@H](O)[C@@H](C)O1, the relative growth was inactive: 1.03. Cc1noc(C)c1S(=O)(=O)N(C)C[C@H]1OCc2cn(nn2)CCCC(=O)N([C@H](C)CO)C[C@@H]1C was tested, and the relative growth was inactive: 1.02. With C[C@H]1CN([C@@H](C)CO)C(=O)c2cccc(NS(C)(=O)=O)c2O[C@H]1CN(C)S(=O)(=O)c1ccc(Cl)cc1 the relative growth was inactive: 0.981. In the case of CN(C)C(=O)C[C@H]1CC[C@H]2[C@H](COc3ccc(NS(=O)(=O)c4cccc(F)c4)cc3C(=O)N2C)O1, the relative growth is reported as inactive: 0.989. C[C@@H]1CN([C@@H](C)CO)C(=O)Cc2cc(NS(=O)(=O)c3ccc(Cl)cc3)ccc2O[C@H]1CN(C)Cc1ccc(Cl)c(Cl)c1 was tested, and the relative growth was inactive: 0.965. In the case of C[C@@H]1CN([C@@H](C)CO)S(=O)(=O)c2ccc(C#CCN(C)C)cc2O[C@H]1CN(C)Cc1ccncc1, the relative growth is reported as inactive: 1.01. NC(=O)c1ccnc(N2CCN(C(=O)C3CCOCC3)C[C@@H](O)C2)c1 was tested, and the relative growth was inactive: 0.953. C[C@H]1CN([C@@H](C)CO)C(=O)c2cccc(NS(=O)(=O)c3ccccc3)c2O[C@H]1CN(C)Cc1ccc(Oc2ccccc2)cc1 was tested, and the relative growth was inactive: 0.968. With C[C@H]1CN([C@@H](C)CO)C(=O)c2cccc(NC(=O)Nc3ccc(C(F)(F)F)cc3)c2O[C@H]1CN(C)Cc1ccc(-c2ccccc2)cc1 the relative growth was inactive: 0.954. With CC[C@@H](C)[C@@H](NC)C(=O)O the relative growth was inactive: 0.973. In the case of C[C@@H]1S[C@H](C)C(=O)NC1=O, the relative growth is reported as inactive: 1. In the case of Cc1noc(C)c1S(=O)(=O)N(C)C[C@@H]1OCCCC[C@@H](C)Oc2ccc(NC(=O)Nc3ccc(F)cc3)cc2C(=O)N([C@@H](C)CO)C[C@@H]1C, the relative growth is reported as inactive: 1.01. In the case of CC(=O)OC1CCC2(C)C(CCC3(C)C2CC=C2C4CC(C)(C)CCC4(C)CCC23C)C1(C)C (stereo not drawn) [beta-AMYRIN ACETATE], the relative growth is reported as inactive: 1.16. C[C@@H]1CN([C@@H](C)CO)C(=O)CCCn2nncc2CO[C@H]1CN(C)Cc1ccc2c(c1)OCCN2C was tested, and the relative growth was inactive: 0.98. In the case of C[C@@H]1CCCCO[C@H](CN(C)Cc2ccc(C(=O)O)cc2)[C@@H](C)CN([C@@H](C)CO)C(=O)c2cc(NS(=O)(=O)c3ccccc3)ccc2O1, the relative growth is reported as inactive: 0.973. For N[C@@H](Cc1ccc(F)cc1)C(=O)O, the relative growth was inactive: 0.998. In the case of C[C@@H]1CN([C@@H](C)CO)C(=O)c2cc(NC(=O)c3ccccc3)ccc2O[C@@H](C)CCCCO[C@H]1CN(C)C(=O)C1CCCCC1, the relative growth is reported as inactive: 0.992. For C[C@@H]1CCCCO[C@H](CN(C)C(=O)Nc2ccc3c(c2)OCO3)[C@H](C)CN([C@@H](C)CO)C(=O)c2cc(NC(=O)NC3CCCCC3)ccc2O1, the relative growth was inactive: 1.01. With C[C@@H]1CCCCO[C@H](CN(C)Cc2ccncc2)[C@@H](C)CN([C@@H](C)CO)C(=O)c2cc(NC(=O)CCC(F)(F)F)ccc2O1 the relative growth was inactive: 0.998. For C[C@@H]1CN([C@H](C)CO)C(=O)c2cc(NS(=O)(=O)c3cccs3)ccc2O[C@@H](C)CCCCO[C@@H]1CN(C)Cc1ccccc1, the relative growth was inactive: 0.987. For C[C@H](CO)N1C[C@H](C)[C@@H](CN(C)S(C)(=O)=O)Oc2cc(C#CCN(C)C)ccc2S1(=O)=O, the relative growth was inactive: 0.999. COC(=O)c1c2oc(c1C(=O)OC)C(=O)N[C@@H](Cc1ccccc1)Cn1cc(nn1)CNC(=O)[C@@H](Cc1ccccc1)NC(=O)N[C@@H](CO)CC2 was tested, and the relative growth was inactive: 1.02. C[C@@H]1CN([C@@H](C)CO)C(=O)c2cc(NS(=O)(=O)c3cn(C)cn3)ccc2O[C@@H](C)CCCCO[C@H]1CN(C)C was tested, and the relative growth was inactive: 0.955. C[C@H](CO)N1C[C@H](C)[C@H](CN(C)Cc2ccc(-c3ccccc3)cc2)Oc2c(NC(=O)c3ccncc3)cccc2C1=O was tested, and the relative growth was inactive: 0.998. In the case of COC1C(OC(N)=O)C(O)C(Oc2ccc3c([O-])c(NC(=O)c4ccc(O)c(CC=C(C)C)c4)c(=O)oc3c2C)OC1(C)C.[Na+] (stereo not drawn), the relative growth is reported as inactive: 0.701. In the case of CO[C@@H](CN(C)C(=O)Nc1ccc(C(F)(F)F)cc1)[C@H](C)CN(Cc1ccccc1Cl)[C@@H](C)CO, the relative growth is reported as inactive: 1.01. Cn1cc(N)cn1 was tested, and the relative growth was inactive: 0.989. For C[C@@H]1CCCCO[C@@H](CN(C)C(=O)NC2CCCCC2)[C@@H](C)CN([C@@H](C)CO)C(=O)c2cc(NC(=O)Nc3ccc(C(F)(F)F)cc3)ccc2O1, the relative growth was inactive: 1.01. With CNC[C@@H]1OCCCC[C@@H](C)Oc2ccc(NS(=O)(=O)c3c(C)noc3C)cc2C(=O)N([C@@H](C)CO)C[C@H]1C the relative growth was inactive: 1.03. For C[C@@H]1CCCCO[C@@H](CN(C)C(=O)Nc2ccccc2)[C@@H](C)CN([C@H](C)CO)C(=O)c2cc(NC(=O)Nc3cccc4ccccc34)ccc2O1, the relative growth was inactive: 1.02. NCc1cc(-c2ccccc2Cl)on1 was tested, and the relative growth was inactive: 0.971. In the case of Cc1noc(C)c1S(=O)(=O)Nc1ccc2c(c1)C(=O)N([C@H](C)CO)C[C@H](C)[C@@H](CN(C)C(=O)Nc1ccccc1)OCCCC[C@@H](C)O2, the relative growth is reported as inactive: 0.941.
